Data as given in PubChem BioAssay (NCI).
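1) Cells in 96-well plates. 2) Compound, 48 h, 5 concentrations. 3) Linear interpolation between surrounding doses. 4) Unreached endpoint = highest concentration. GI50 = concentration required for 50% inhibition of growth. TGI: concentration producing complete growth inhibition.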

Each molecule was assayed on NCI-H322M lung (assay: NCI tumour cell line growth inhibition, 48 h).

Structure (SMILES) | GI50 [µM] | TGI [µM]
Cc1ccc(C2SCc3nc4ccc(C(=O)c5ccccc5)cc4n32)cc1 (stereo not drawn) | 16.4 | 38.5
CCCCCCNC(=O)Oc1ccc(/C(=C(\C)c2ccccc2)c2ccc(OCCN3CCCCC3)cc2)cc1 | 10.2 | 27.9
CC1CCCN(CC(O)CN2CCCc3ccccc32)C1 (stereo not drawn) |  | > 100
CCOC(=O)C1=C(NC(C)(C)C)OCC1=O |  | > 100
CN1CC2=C(NC(=S)NC2c2ccc(Cl)cc2)/C(=C/c2ccc(Cl)cc2)C1 (stereo not drawn) |  | 35.9
COc1ccc(NC(=O)Nc2ccc(Nc3nc(C)cc(Nc4ccc(C)cc4)n3)cc2)cc1 | 1.59 | 3.09
N#CCC(=O)N/N=C1/C(=O)NC(=O)C(=O)C1c1nc2ccccc2s1 (stereo not drawn) |  | > 100
C=C1CC2(OC1=O)c1ccccc1C=Cc1ccccc12 |  | 30.1
O=C1C(Cl)C(c2ccc(Cl)cc2)N1n1cnc2ccccc2c1=O (stereo not drawn) |  | > 100
COC(=O)[C@H]1C=C[C@@H](C)n2c(=O)c3ccccc3c(=O)n21 |  | > 100
CC[C@@H](C)[C@H]([C@H](CC(=O)N1CCC[C@@H]1[C@@H](OC)[C@H](C)C(=O)N[C@H](Cc1ccccc1)c1nccs1)OC)N(C)C(=O)[C@H](NC(=O)[C@@H](C(C)C)N(C)C)C(C)C | < 0.215 | 
CCOC(OCC)c1ccc(/C=C/c2cc(OC)c(OC)c(OC)c2)cc1 |  | > 100
O=C(/C=C/c1c(O)ccc2ccccc12)c1cccc2ccccc12 |  | > 100
CCc1ccccc1-n1c2nc(=O)n(C)c(=O)c-2nc2ccccc21 |  | 34.2
CCOC(=O)CNC(=O)CCCn1c(=O)c2c3ccccc3n(C)c2n2nnc(-c3ccccc3)c12 | > 50 | > 50
O=C(O)c1ccc(N=Nc2cc(S(=O)(=O)O)c3cccnc3c2O)cc1 |  | > 100
C[C@@H]1CC[C@H]2C(COC/C=C/COCC3=C(C(F)(F)F)O[C@@H]4O[C@@]5(C)CC[C@H]6[C@H](C)CC[C@@H]3[C@@]46OO5)=C(C(F)(F)F)O[C@@H]3O[C@@]4(C)CC[C@@H]1[C@]32OO4 | 4.63 | > 100
COc1ccc(-c2onc(-c3c(C)cc(C)cc3C)c2C2=NCCCN2)cc1 |  | > 100
O=C(c1ccco1)c1c(C(F)(F)F)nc2cc(C(F)(F)F)ccc2[n+]1[O-] | 79.2 | > 100
CCOc1ccc(N/C(=C(/C(Cl)=C(/Cl)NCCO)[N+](=O)[O-])n2nnc3ccccc32)cc1 |  | > 100
O=C(CCC(=O)N/N=C/c1ccccc1O)N/N=C/c1ccccc1O |  | > 100
COc1ccc(CNc2nc(NCc3ccc(OC)cc3)nc(NC(C)C)n2)cc1 |  | 53.5
CC(C)(C)C1CCC2(CC1)CCN(CCCN1CCOCC1)CC2 |  | > 100

Structure (SMILES) | GI50 [µM] | TGI [µM]
CCCCOP(=O)(OCCCC)/C(C#N)=C/c1ccco1 |  | > 100
COc1ccc(OC)c(NC(=O)C(=O)Nn2c(=S)[nH]c3ccccc3c2=O)c1 |  | > 100
OCCSCc1cc2c(O)c(c1)Cc1cc(CSCCO)cc(c1O)Cc1cc(CSCCO)cc(c1O)Cc1cc(CSCCO)cc(c1O)C2 |  | 23
C[C@]12CC(c3ccccc3O1)C(C#N)C(=O)N2 (stereo partly drawn) |  | > 100
COc1cc(C2CC(c3ccc4c(c3)OCO4)=NN2C(C)=O)cc(OC)c1OC (stereo not drawn) | 3.01 | > 100
COc1cccc(Cn2cc3c(c2)-c2oncc2CC3)c1 | 0.432 | > 26.1
O=c1oc2cc(O)ccc2c(O)c1C(c1ccccn1)c1c(O)c2ccc(O)cc2oc1=O |  | > 100
Cc1ccc2[nH]c(C(=O)NN3C(=O)CSC34CCCC(C)C4)c(-c3ccccc3)c2c1 (stereo not drawn) | 18 | 37.7
O=C(CCc1ccccc1)On1nnc2ccccc2c1=O |  | > 100
CCOC(=O)N1C/C(=C/c2ccc(OC)cc2)C(=O)/C(=C/c2ccc(OC)cc2)C1 | > 32.4 | > 61.7
CCOC(=O)c1cc2cc(NC(=O)c3cc4cc([N+](=O)[O-])ccc4n3C)ccc2n1C | 30.8 | > 100
COc1ccc(/C=C/c2nc(=S)[nH][nH]2)cc1 |  | > 100
CC12CCc3ccccc3C1=Nc1ccccc12 (stereo not drawn) |  | > 100
O=C(CCCNC(=O)OCc1ccccc1)OCc1ccc2c(c1)C(=O)c1ccccc1C2=O |  | > 100
CN(C)[C@@H]1C(=O)C(C(=O)NCNCCCC(=O)O)=C(O)[C@@]2(O)C(=O)C3=C(O)c4c(O)cccc4[C@@](C)(O)[C@H]3C[C@@H]12 |  | > 100
CS(=O)(=O)OCCN(CCOS(C)(=O)=O)c1ccc(C=Nc2ccc3oc(=O)ccc3c2)cc1 |  | 52.5
COc1cc2ccc1-c1cc(ccc1O)CC1c3cc4c(cc3CCN1C)Oc1c(OC)cc3c(c1O4)C(C2)N(C)CC3 (stereo not drawn) |  | 4.04
Cc1c2ncccc2nc2[nH]c3ccc(OCCN(C)C)cc3c12 | 1.38 | 11.6
C=C(C)[C@@H]1CC[C@@H](C)[C@](O)([C@@H]2C[C@@H]([C@H](COC(=O)c3ccccc3)OC(=O)c3ccccc3)OC2=O)C1 |  | > 100
O=C1/C(=C/c2ccc([N+](=O)[O-])s2)Oc2ccccc21 | 2.58 | 7.58
Cc1cc(S(=O)(=O)Nc2nc(N)nc(N3CCOCC3)n2)c(SCC(=O)O)cc1Cl |  | > 10
O=C1Nc2ccccc2[C@]12C[C@H]2c1ccccn1 |  | > 100
COC(=O)C(/C(=N/N)C(=O)Nc1cc(Cl)c(Cl)cc1Cl)c1nc2ccc(Cl)cc2[nH]c1=O (stereo not drawn) |  | > 100

Structure (SMILES) | GI50 [µM] | TGI [µM]
O=C(c1cc(Br)ccc1O)c1cc(Br)ccc1O |  | 30.7
Cn1cc2c(=O)n3ncn(-c4ccc(Br)cc4)c3nc2n1 |  | > 100
CCN(CC)Cc1ccc2cccnc2c1O |  | > 100
COc1cccc2c1cc([N+](=O)[O-])c1c(C(=O)O)cc3c(c12)OCO3 | 26.1 | > 100
O=C(CC1(O)C(=O)Nc2ccc(Br)cc21)c1ccc(C(=O)NCC2CCC3(CC2)OOC2(CCCCC2)OO3)cc1 (stereo not drawn) | 13.8 | 33.8
COc1ccc(-c2c3c(n(C4OC(CO)C(O)C(O)C4O)c(=S)c2C#N)CC(C)(C)CC3=O)cc1 (stereo not drawn) |  | > 100
COc1ccc(/C(Cl)=C(\C=O)c2ccc(Br)cc2)cc1OC |  | > 100
C#CCOc1ccc2ncnc(Nc3ccc(NC(=O)CCl)cc3)c2c1 | 14.1 | 27.4
NC(=O)c1csc(CCCCCCc2nc(C(N)=O)cs2)n1 |  | > 100
C/C(=N\NC(=O)/C(C#N)=C\c1ccc(N(CCC#N)CCC#N)cc1)c1ccccc1 |  | > 10
CCc1ccc(/C(C)=N/NC(N)=S)cc1 |  | > 100
O=[N+]([O-])c1cc(Cl)cc2c1nc(NCCO)c1ccccc12 |  | > 100
COc1cc(-c2nn(C(=O)NS(=O)(=O)c3ccc(C)cc3)cc2-c2ccncc2)ccc1Cl | 17.3 | 95.1
CN(C)c1ncnc2c1ncn2C1C=CC(COS(N)(=O)=O)C1 (stereo not drawn) |  | > 100
COC(=O)C1=C(c2cc(OC)c(OC)c(OC)c2)OC(c2cc(OC)c(OC)c(OC)c2)C1COC(C)=O (stereo not drawn) |  | > 100
C[C@@]1(c2ncncc2F)NC(=O)c2cc(-c3cn[nH]c3)ccc21 | 17.4 | > 100
COc1ccc(/C=C2\N=C(c3ccccc3)N(Nc3nnc(NN4C(=O)/C(=C/c5ccc(OC)cc5)N=C4c4ccccc4)c4ccccc34)C2=O)cc1 |  | > 100
COc1cc(-c2nc(SCC(=O)Nc3ccc(C(C)=O)cc3)[nH]c(=O)c2C#N)cc(OC)c1OC | 30.3 | > 100
O=C1C(Cl)=C(Nc2cccc(C(F)(F)F)c2)C(=O)N1Cc1ccccc1Cl | 15.5 | 35.9
COC(=O)[C@@H](Cc1c[nH]c2ccccc12)NC(=O)/C=C/c1ccccc1 | 9.11 | > 100
CN(C)c1ccc(/C=C2\N=C(N/N=C/c3ccccc3)NC2=O)cc1 |  | > 100
